# Some of the results follow.
# System: PfAP2-HC AP2 domain (GST-tagged)
# Experiment: gcPBM binding intensity (ln(normalized median fluorescence intensity)); higher = stronger DNA binding
# Procedure, shortened: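 Binding intensity is the highest Masliner-normalised natural-log median intensity over replicate spots in either probe orientation. To obtain it, GST-tagged P. falciparum DNA-binding domains made in E. coli were incubated for 1 h on an Agilent 4 × 180k array of primer-extended double-stranded 36-bp intergenic genomic probes plus negative controls. Detection used Alexa488 anti-GST antibody with scanning at 488 nm.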
row,Sequence,gcPBM binding intensity (ln)
1,AATAATAAAGATCAATGTACATAATAAAAAAAAAAA [XGTACX_site2692],9.83
2,TATCATGGGTGTATTTCACACACGGATAATCATTTA [CACACA_site8211],9.83
3,AATGTTTATTAACATTGTACTTATAATATGTCACAA [XGTACX_site2974],9.48
4,AAACAACATATATTAATATGTACATATATATAGATA [GTGCAC_negctrl_site229],9.8
5,TTTTTTTTTTTTGTAACACACAATAATATAACATTA [CACACA_site3411],9.68
6,TTTTTATTGTTATAGTTATAATATATTATTTGATTA [XGTACX_negctrl_site27],9.73
7,AATAATTGTTAAAGCTGTACAATACTTATATAAGAA [XGTACX_site5729],9.71
8,TTATTAAGTAAATCACATTTAATTTTTTTTTTTTTT [CACACA_negctrl_site1280],9.27
9,CACATATAAATATTAACACACATAATGAGTTATATA [CACACA_site7316],9.71
10,TTATACCATATTTATAGTACGTACAAATAAATCAAT [XGTACX_site4975],9.59
11,AAGAAAAAAAAAAAAAGTACATGCAATATGGATCTT [XGTACX_site3106],9.75
12,AATATGACGTAGTGGTGTACACACATGGTACCTTTA [XGTACX_site3147],10.1
13,AAAAGATAATTATGCACACACACACCCCCACCCAAC [CACACA_site2570],10.9
14,TTATAAATATAATTTTGTACATATATATATATATAC [XGTACX_site5064],9.54
15,TTAGAACTATTTTATACATGCAGTTATTTAATACTT [TGCATGCA_site1039],9.61
16,AATGGAAATTTTTCTTGTACACATATATGACATGTT [XGTACX_site1691],9.65
17,TTTTTTTTTACTGCATGTACTTGATGTAAATAAATT [XGTACX_site3045],9.65
18,ATATATTTTCCTTCAAGTACACATATAAATGTGTAT [XGTACX_site6633],9.71
19,ATTAAAATATAAGTCACACATATATATATATATATA [CACACA_site6145],9.51
20,TATTTTTTTTTATTTTTTTTTATTTTGTTTTTTTAT [TGCATGCA_negctrl_site315],9.44
21,AAAAAAATAATCATCACACACGGAGAATGTCCAATA [CACACA_site5305],10.1
22,ACATATATTTTTTTTTGTACATATAAATATATATAT [XGTACX_site6491],9.7

row,Sequence,gcPBM binding intensity (ln)
1,AACGTAAAACATATCTATCAAAATAAATCATTAATC [TGCATGCA_negctrl_site68],9.96
2,AATATAATAATATTTTGTACATATCCTATGTATGAG [XGTACX_site8601],9.66
3,ACAACAATTCACTTGATGCACTAACCAAAAAAATAA,9.59
4,CACGCACGCAGACACACACACACACGCACATATATA [CACACA_site6303],10.6
5,ACATATAAAATGATGCGTACATATTTGATCATATAC [XGTACX_site153],9.72
6,CTAAATAACTTAAGGTGTACGTTTCCAATAAAAAAA [XGTACX_site1742],9.53
7,GTATATTAATAAACATGTACACAATTTATTTATATT [XGTACX_site1012],9.85
8,TTTTTTTTTTGAAGTGCATGTTACGATGAAAAAAAA [TGCATGCA_site64],9.33
9,TTTTTTTTTAAATGTTGTACATTATATTTGTGTATA [XGTACX_site8354],9.69
10,CGTATGTGCGGACATGCATGCAATATACAAGAAAAA [TGCATGCA_site145],9.66
11,TGTAGCCTGGAGAAGAGTACATAGTATCTGGTAGCT [XGTACX_site4943],9.43
12,TATTTTTTTACATATTGTACATAATATAAAACTTAC [XGTACX_site8273],9.74
13,TATATTTGGTTTCATTCATTTTTATAGAAATCTCAA [CACACA_negctrl_site1412],9.35
14,CACACGTATATATATACACACTAAAATACCCAGACA [CACACA_site6142],9.91
15,ATTTTTTCATATTCTACACACGTGAACAAATGTGTC [CACACA_site3007],10.1
16,AATATTTTGTTATTTATTTAATCTAATATTATGATA [GTGCAC_negctrl_site258],9.5
17,ATATAATAGAAGTGTACACACATATTTATGGGTGTA [CACACA_site5686],9.91
18,TTTTTAGTTAATTAAACACACAAAAAAAAAAATAAA [CACACA_site3930],9.57
19,ATAATATTGTGGTATACACACCTTACAAAAAGGTAC [CACACA_site5582],9.8
20,AATATTTTTATATATATACACACTTACATATATATA [CACACA_site3609],9.79
21,TTTTCTAAAAAAAGTTGTACATCTTATTTATATTAT [XGTACX_site295],9.63
22,AAAAAATAAAAAAATAAAAAATAAAAAATAAAAAAT [TGCATGCA_negctrl_site90],9.46

row,Sequence,gcPBM binding intensity (ln)
1,TATAAAAATAAATAAATAAATAAATAAATAAATAAA [TGCATGCA_negctrl_site310],9.47
2,ATGTAAGACAAAAAGGGTACATAATGCGTATGTATT [XGTACX_site4666],10
3,AAAAATTACCCATCCATACACACATATTTTTTTTAA [CACACA_site2190],9.95
4,GTATATAATTATATATGTACTAAATAAATATTTTTA [XGTACX_site6062],9.6
5,ATTAAAATTTGTTAAAGTACTTAATAAAAATTTTTC [XGTACX_site1959],9.26
6,TATAAATCTATAAATGCACACAAGGGAAGAAAAACG [CACACA_site2965],9.97
7,TATTATTCCAAGAAAAAAAAAAATAAAAAAAAAAAA [CACACA_negctrl_site1424],9.21
8,CAAACAATTAAACAAACACACATATACAAGTATATA [CACACA_site8639],10.2
9,AAAGAACAAATAAAACATAAAATAATATATATAGAT [CACACA_negctrl_site1764],10.1
10,TTTAAGATTTTGTAATGTACATATATACATATATAT [XGTACX_site399],9.75
11,AGGTGAATATTTTTTACACACATAAAAAAAATATAT [CACACA_site57],9.82
12,TATATATTATATATGTGTACTCACTAACAAAAATTA [XGTACX_site6285],9.52
13,AAATTATATAAAGGAACACACATTTTATTTTATTTT [CACACA_site1500],9.7
14,TATATTTTTATAATAACACACGATATATGTTTAGGA [CACACA_site1283],9.63
15,AATGACTACATAATAGTGCAATATTAAAGAAAATTA,9.68
16,TGTATATCATAAGATGGTACACGTGTGTGCGTATGC [XGTACX_site2255],10
17,ATTCTTAAAAAAAAATGTACACATGAACAATATGTA [XGTACX_site362],9.52
18,AATCAAAATTCATTAACACACAATTTTAATATTCTT [CACACA_site5178],9.7
19,TTTTTTAAAATATGGACACACATATATATATATGTA [CACACA_site2784],9.5
20,TATTTTTATAAGAGCATGCACTGTTTAAAATGGTAT,9.5
21,TTTTGATATAAAAAAAGTACATTAATAATATTAATT [XGTACX_site4248],9.33
22,CAGTATTCTTCTATATGTACTTATTTAAATATTCTT [XGTACX_site7555],9.8

row,Sequence,gcPBM binding intensity (ln)
1,TAAATAATAATAAATGTGCACAGGTATTAACAAAAA [GTGCAC_site9988],10
2,ATGATATGGATAAATACACACAATAAAATAATGTCT [CACACA_site6786],9.8
3,TTTATTTATTTATGTTGTACAAGTTTATACTGGAAT [XGTACX_site6479],9.63
4,TTTTAACAAAACAAAACAAAATAATATAAAGATAAC [TGCATGCA_negctrl_site154],9.77
5,TTTTTTTTTTTTTTTTTTTGATTCTTATAAAAATTT [GTGCAC_negctrl_site240],8.56
6,AGGTCACATTTGTCCTCACACATAGATAAATATATA [CACACA_site5460],9.65
7,AATTAGCATTAAAAATGTACAAAAGAAAAAAATATA [XGTACX_site3816],9.83
8,GTCAAAAATAATATATGTACTTATAATAGATAAATG [XGTACX_site7755],9.6
9,ATAATTTGATCAATTTTTCATTTTTCATTTTTTTAA [CACACA_negctrl_site1252],9.56
10,TTAACATATGACATTTTTTCACCCTTCCTTTATTTT [CACACA_negctrl_site1192],9.8
11,ATAAAATCATTCAATGGTACAGAAATACAAAATGTA [XGTACX_site6739],9.76
12,TATGTATAAAAATATTGTACATATTATATATATATA [XGTACX_site2947],9.42
13,TAAAATTTAAAAAGGTGTACACTATAAATTAAAATA [XGTACX_site2081],9.71
14,AGAAAGAATGAAAAATGTACATATATGTAATAGCTA [XGTACX_site364],9.97
15,TTCTTTCTGTTTTATTTATAATAATTTATGATAAAA [CACACA_negctrl_site766],9.6
16,TGTTTTTAATTTCGCACACACCTTGTGGAAAAAAAA [CACACA_site4482],9.85
17,ATACGTGGGCAAAAAGTGCATATAATCAAAAAAAAA [GTGCAC_site9961],9.69
18,ATATATATATTTGTATGTACATATCATATTGTGTGT [XGTACX_site1580],10.2
19,AAGATATTTGAATATACACACGATTTAAATTTAATA [CACACA_site3866],9.67
20,GTATAACTTTTGCGCGTACACACATTTATCCTCTTT [CACACA_site208],10.7
21,ACGTATAATATGTACACACACATATATACAAAAAAA [CACACA_site917],10
22,TTTCTTTTTTTATAATCCACATTGGGAAAATCAAAA [TGCATGCA_negctrl_site159],9.19

# From the supplement of paper PMC11417369
